SMILES strings stand for the structures. This is one part of the list. Single values are uncertain, as repeats are few or missing.

We go through nine molecules from the supplement of paper PMC4604168 (melanoma cell lines).

Some test systems named below: WM115; WM1716; WM1745; WM3526; WM3619; WM451Lu.
Holding throughout (test): cell count relative to DMSO control; melanoma cells; higher = more viable cells
Conditions in all cases: library dose: low library concentration; 72 h
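Note: cell number obtained by counting DAPI-stained nuclei in high-throughput microscope images with image analysis software, screen run in 1,536-well plates.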

Consider `CC[C@]1(O)C[C@H]2CN(CCc3c([nH]c4ccccc34)[C@@](C(=O)OC)(c3cc4c(cc3OC)N(C=O)[C@H]3[C@@](O)(C(=O)OC)[C@H](OC(C)=O)[C@]5(CC)C=CCN6CC[C@]43[C@@H]65)C2)C1` [vincristine] + Cc1cc([N+](=O)[O-])ccc1NS(=O)(=O)c1cc(Cl)ccc1Cl [FH535] (first compound 0.0001 µM, partner dose 1 µM), for which the cell count in the assay on WM115 came out at 37.2%; with WM1716, 33.3%; with WM1745 it was 64%; with WM3526, 48.4%; with WM3619, 43.4%; with WM451Lu, 50.3%.

In the case of `N#CC[C@H](C1CCCC1)n1cc(-c2ncnc3[nH]ccc23)cn1` [ruxolitinib] + NC(=O)c1ccc(N(C(N)=O)c2c(F)cccc2F)nc1-c1ccc(F)cc1F [VX702] (first compound 1 µM, partner dose 0.4 µM), the cell count stood at 102% with WM115; 116% in the assay on WM1716; 104% with WM1745; 104% in the assay on WM3619; 116% in the assay on WM451Lu.

For `N#CC[C@H](C1CCCC1)n1cc(-c2ncnc3[nH]ccc23)cn1` [ruxolitinib] + CN(C)S(=O)(=O)c1ccc2c(c1)/C(=C/c1cc3c([nH]1)CCCC3)C(=O)N2 [SU6656] (first compound 1 µM, partner dose 0.4 µM), the cell count in the assay with WM115 is 71.5%; in the assay with WM1716, 113%; with WM1745, 87.4%; with WM3526, 96%; with WM3619, 105%; in the assay on WM451Lu, 82.1%.

On to `N#CC[C@H](C1CCCC1)n1cc(-c2ncnc3[nH]ccc23)cn1` [ruxolitinib] + NCC(=O)Nc1ccc(-n2nc(C(F)(F)F)cc2-c2ccc3c(ccc4ccccc43)c2)cc1 [OSU03012] (first compound 1 µM, partner dose 1 µM), for which the cell count was 98.1% in the assay with WM115; 82.8% in the assay on WM1716; 98.7% with WM1745; 62.7% in the assay with WM3526; 62% in the assay with WM451Lu.

With `N#CC[C@H](C1CCCC1)n1cc(-c2ncnc3[nH]ccc23)cn1` [ruxolitinib] + COc1cc2ncnc(Nc3ccc(Oc4ccccc4)cc3)c2cc1OC [SrcI1] (first compound 1 µM, partner dose 2 µM), the cell count with WM1716 was determined as 94.5%; in the assay on WM1745, 81.9%; with WM3526, 90.6%; in the assay with WM3619, 103%; with WM451Lu it was 114%.

Regarding `N#CC[C@H](C1CCCC1)n1cc(-c2ncnc3[nH]ccc23)cn1` [ruxolitinib] + Nc1nc(F)nc2c1ncn2[C@@H]1O[C@H](CO)[C@@H](O)[C@@H]1O [fludarabine] (first compound 1 µM, partner dose 0.2 µM), the cell count was 108% in the assay on WM115; 97.6% in the assay on WM1716; 37.2% in the assay with WM3526; 88.8% in the assay with WM3619; 57.9% with WM451Lu.

In the case of `Cc1cc(Nc2cc(N3CCN(C)CC3)nc(Sc3ccc(NC(=O)C4CC4)cc3)n2)n[nH]1` [Tozasertib] + Cc1cc(Nc2cc(N3CCN(C)CC3)nc(/C=C/c3ccccc3)n2)n[nH]1 [ENMD2076] (first compound 0.006 µM, partner dose 0.04 µM), the cell count in the assay with WM115 was found to be 96.5%; in the assay on WM1716, 99%; in the assay with WM1745 it was 93%; in the assay with WM3526, 111%; in the assay with WM3619, 97.3%; in the assay with WM451Lu it was 97.6%.

In the case of `N#CC[C@H](C1CCCC1)n1cc(-c2ncnc3[nH]ccc23)cn1` [ruxolitinib] + Oc1nc(-c2ccc(C(F)(F)F)cc2)nc2c1CSCC2 [XAV939] (first compound 1 µM, partner dose 2 µM), the cell count came out at 99.2% with WM115; 61.4% with WM1716; 105% in the assay on WM1745; 115% in the assay with WM3526; 137% with WM3619; 83.8% in the assay on WM451Lu.

Regarding `N#CC[C@H](C1CCCC1)n1cc(-c2ncnc3[nH]ccc23)cn1` [ruxolitinib] + O=c1cc(-c2cccc3c2Sc2ccccc2S3)oc(N2CCOCC2)c1 [KU55933] (first compound 1 µM, partner dose 1 µM), the cell count is 102% with WM115, 97.6% in the assay on WM1745, 116% with WM3526 and 103% with WM3619.
